From the supplement of paper PMC3334620
The full ranking holds about 33,000 sequences; the median of “E-score (-0.5 to 0.5)” is about -0.035, and the highest 2% start at about 0.34. The list shows a part of the results.

Biological target: T1, Mot3 (UniProt P54785)
T1 sequence: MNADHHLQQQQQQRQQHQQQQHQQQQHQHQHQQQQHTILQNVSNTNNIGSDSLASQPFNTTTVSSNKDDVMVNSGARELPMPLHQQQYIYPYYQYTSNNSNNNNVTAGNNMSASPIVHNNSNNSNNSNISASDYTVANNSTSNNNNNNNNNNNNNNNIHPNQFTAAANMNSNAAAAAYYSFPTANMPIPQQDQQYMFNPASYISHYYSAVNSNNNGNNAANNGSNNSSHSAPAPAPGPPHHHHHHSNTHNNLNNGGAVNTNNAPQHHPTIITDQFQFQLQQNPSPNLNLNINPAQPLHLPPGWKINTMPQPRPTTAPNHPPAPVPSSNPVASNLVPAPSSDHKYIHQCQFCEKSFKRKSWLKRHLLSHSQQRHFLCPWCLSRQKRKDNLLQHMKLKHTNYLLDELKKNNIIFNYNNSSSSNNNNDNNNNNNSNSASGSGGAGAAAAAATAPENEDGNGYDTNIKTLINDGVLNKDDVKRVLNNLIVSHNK
Assay: PBM E-score (8-mer binding enrichment) (E-score (-0.5 to 0.5)); higher = stronger / more preferred TF binding; most listed sequences are background and not binding sites
Settings: protein concentration: 200 nM; construct: GST-full length
Summary of the method: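 Yeast transcription factors, full-length or as DNA-binding domains, were expressed with a GST tag using PURExpress in vitro transcription/translation. At about 100-200 nM they were applied to universal all-10-mer Agilent arrays, double-stranded by primer extension on fresh or once-stripped slides. Fluorescent anti-GST detected bound protein, and masliner normalised the scans. E-scores for ungapped eight-base words, pooled with reverse complements, came from the Universal PBM Analysis Suite.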

| Sequence | PBM E-score |
| --- | --- |
| CCCTTAAA | -0.00813 |
| CGCAACAA | 0.254 |
| GCTTCTAA | -0.144 |
| AAAATAAG | 0.0307 |
| ATTGCTTC | 0.0452 |
| CAGGTTGA | -0.155 |
| CCTCCATC | -0.162 |
| CACATAGG | 0.138 |
| AAAACAAC | 0.141 |
| AACCGGCA | -0.154 |
| ATCGCGGC | -0.23 |
| CCATGCAG | -0.146 |
| AGGGCAAC | 0.161 |
| ACATTTCT | -0.0306 |
| CACTCAAG | -0.0175 |
| GCGCCTCA | -0.262 |
| CGAACGCA | 0.133 |
| GCTTAGAA | 0.00698 |
| CTGTAGCA | 0.041 |
| AATCCATC | -0.21 |
| CCTTAGTC | -0.0556 |
| GAGGCGAC | -0.128 |
| AGCAACTA | 0.128 |
| ATCTTAAT | 0.111 |
| CTGGTTAC | 0.0615 |

| Sequence | PBM E-score |
| --- | --- |
| TCGGCCCA | -0.257 |
| ATTTGGGG | -0.112 |
| CAAGCGAA | 0.0464 |
| GGCTCGGA | -0.324 |
| CAAAGTTA | 0.173 |
| GGTAGGGA | -0.104 |
| AAGGCCGG | -0.32 |
| TCGTTACA | 0.163 |
| ATGACTTA | -0.0644 |
| AACGTAGC | 0.0725 |
| GCTGCTCC | -0.178 |
| GAGCGCGA | -0.154 |
| CACGGAAG | 0.118 |
| ACATGGGC | 0.277 |
| CGCTGTAC | 0.058 |
| TCCGCTAA | -0.229 |
| ACCCTTCT | -0.0754 |
| CGCCGTCA | -0.238 |
| TTACACAA | 0.42 |
| CTGGATTA | 0.0668 |
| TCGCTGCA | -0.132 |
| CGCGCGCG | -0.00306 |
| ATACTCGA | -0.0507 |
| CTGTAGAC | 0.0199 |
| AAGACCGC | -0.139 |

| Sequence | PBM E-score |
| --- | --- |
| CATCATCG | -0.185 |
| CCACCTAG | -0.085 |
| ACCAACTA | -0.055 |
| TCCGGAGA | -0.297 |
| AGCGTGAA | -0.0361 |
| AGGTCCTC | -0.156 |
| TAGGCAGA | 0.136 |
| GCTGGGCA | -0.131 |
| GAGTGATC | -0.141 |
| ATTTACGA | 0.189 |
| ATCTGACC | -0.149 |
| TATTTTAA | 0.159 |
| CCCATCAG | -0.197 |
| CGGCATAG | -0.0414 |
| CCCGACAG | -0.156 |
| ATTACGAA | 0.234 |
| ACCCCAGC | -0.0512 |
| ACGCAAAC | 0.0523 |
| ATATGAAT | -0.0552 |
| CCCGTTAG | -0.267 |
| AGGCCGGC | -0.174 |
| GATGGTGC | -0.079 |
| AGGTGCTA | 0.178 |
| ATGAACTA | 0.0464 |
| ACCTATGC | -0.0133 |

| Sequence | PBM E-score |
| --- | --- |
| CGCGTTAG | 0.187 |
| ACGTCTTC | -0.129 |
| CCCAGCCA | -0.194 |
| CCTCGGTA | -0.251 |
| ATGTCTAG | 0.0738 |
| ATACGTGA | 0.098 |
| ACTTGCGC | 0.0581 |
| AGGGAAGG | 0.0639 |
| TAAATCTA | 0.13 |
| AGCTGCGC | -0.139 |
| CCATTCTC | -0.174 |
| ATAGTACA | 0.166 |
| CGGTGTAG | 0.0783 |
| AACGCAAT | 0.274 |
| AAGCATCA | -0.0962 |
| ACCACTTC | -0.267 |
| CCGCGCCC | -0.306 |
| AAGAGTAC | 0.0968 |
| GGCCCGGA | -0.204 |
| AATAGAGC | 0.0999 |
| CGTATGGC | -0.0713 |
| GTCTTGGA | -0.00695 |
| TCTCAAGA | -0.202 |
| CAAAATCA | 0.166 |
| CGAGGTCA | -0.268 |

| Sequence | PBM E-score |
| --- | --- |
| GCTCCCGA | -0.329 |
| ATAGTGTC | -0.133 |
| CGGTGAGC | -0.338 |
| CCTGTCTA | 0.0647 |
| AACCGAAC | -0.162 |
| CCGCTCGA | -0.265 |
| CGCAAGTA | 0.221 |
| CCGAGAAG | -0.2 |
| CCGACAAA | -0.00029 |
| AGTTCACG | -0.0179 |
| CCTGGCGC | -0.266 |
| CGCTTCGC | -0.166 |
| AAGTTCAC | 0.0665 |
| CAACTCCC | -0.189 |
| CCCTGTAC | -0.0171 |
| AACCCAAT | 0.0174 |
| CAACCCAC | -0.125 |
| TGTTATAA | 0.35 |
| GCGGAGAA | -0.143 |
| AATGGACA | -0.0237 |
| ATTCACGG | -0.0552 |
| AGCTAGTG | -0.0926 |
| GTTAAGAA | 0.233 |
| CCTCGTGA | -0.233 |
| ATCCATCC | -0.191 |

| Sequence | PBM E-score |
| --- | --- |
| ACAAGGTC | 0.198 |
| AAGTCCAT | -0.0818 |
| GACGCAAC | -0.0695 |
| CATCATGC | -0.0246 |
| AAGCGGAA | -0.0713 |
| GTAAGCCA | -0.0855 |
| ATTTCTTG | -0.0106 |
| CCCATCCG | -0.147 |
| CATTATGC | 0.00078 |
| GGGACACA | -0.157 |
| CCCATATA | -0.0469 |
| AGTGAAAC | -0.118 |
| GAGTTACA | 0.118 |
| CATATGAC | -0.0348 |
| ATATTCTC | -0.0374 |
| GCACTTCA | 0.0635 |
| CCTCGAAC | -0.0184 |
| CTCTCGGA | -0.159 |
| CATCACCG | -0.0699 |
| CGGATCTC | -0.307 |
| CATATAAA | 0.241 |
| TCTGAAAA | 0.0436 |
| ATGCAAAA | 0.149 |
| GAGCCACC | -0.332 |
| ATAATGTG | 0.0722 |

| Sequence | PBM E-score |
| --- | --- |
| AATAGATT | 0.119 |
| CACCCTAG | 0.00452 |
| CGATTAAG | 0.108 |
| ACGACAGC | -0.0477 |
| CGTATAAG | -0.0705 |
| ATCTGACG | -0.195 |
| GCGAGCGA | -0.244 |
| ACCCTCAG | -0.139 |
| AATGTGGC | -0.147 |
| AAGATACT | -0.0295 |
| ATCGCATG | 0.0898 |
| ATTAGGAC | -0.134 |
| TCTTACAA | 0.128 |
| GTTAATCA | 0.232 |
| CAACGAAA | 0.126 |
| ACGGGAGG | -0.151 |
| CGGCCCTA | -0.302 |
| GCCGCTCA | -0.25 |
| GTAAACTA | 0.213 |
| GCACCAGC | -0.112 |
| CCAAGTTC | -0.078 |
| GTGTTCCA | -0.0331 |
